Test results reported in article PMC4336329 (PLoS ONE, 2015).
Among all 310,000 compounds or so, about 14,000 (4.5%) showed an effect of 50% or more. Effects have a minus sign here. The list shows a part of the results.

Molecular target: human ether-à-go-go-related gene (hERG) potassium channel (human, UniProt Q12809)
Test: primary screen, population patch clamp on CHO cells stably expressing hERG
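Note: peak tail current of the secondary pulse compared with the same well before compound.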

human ether-à-go-go-related gene (hERG) potassium channel, sequence (Q12809 whole entry, looked up): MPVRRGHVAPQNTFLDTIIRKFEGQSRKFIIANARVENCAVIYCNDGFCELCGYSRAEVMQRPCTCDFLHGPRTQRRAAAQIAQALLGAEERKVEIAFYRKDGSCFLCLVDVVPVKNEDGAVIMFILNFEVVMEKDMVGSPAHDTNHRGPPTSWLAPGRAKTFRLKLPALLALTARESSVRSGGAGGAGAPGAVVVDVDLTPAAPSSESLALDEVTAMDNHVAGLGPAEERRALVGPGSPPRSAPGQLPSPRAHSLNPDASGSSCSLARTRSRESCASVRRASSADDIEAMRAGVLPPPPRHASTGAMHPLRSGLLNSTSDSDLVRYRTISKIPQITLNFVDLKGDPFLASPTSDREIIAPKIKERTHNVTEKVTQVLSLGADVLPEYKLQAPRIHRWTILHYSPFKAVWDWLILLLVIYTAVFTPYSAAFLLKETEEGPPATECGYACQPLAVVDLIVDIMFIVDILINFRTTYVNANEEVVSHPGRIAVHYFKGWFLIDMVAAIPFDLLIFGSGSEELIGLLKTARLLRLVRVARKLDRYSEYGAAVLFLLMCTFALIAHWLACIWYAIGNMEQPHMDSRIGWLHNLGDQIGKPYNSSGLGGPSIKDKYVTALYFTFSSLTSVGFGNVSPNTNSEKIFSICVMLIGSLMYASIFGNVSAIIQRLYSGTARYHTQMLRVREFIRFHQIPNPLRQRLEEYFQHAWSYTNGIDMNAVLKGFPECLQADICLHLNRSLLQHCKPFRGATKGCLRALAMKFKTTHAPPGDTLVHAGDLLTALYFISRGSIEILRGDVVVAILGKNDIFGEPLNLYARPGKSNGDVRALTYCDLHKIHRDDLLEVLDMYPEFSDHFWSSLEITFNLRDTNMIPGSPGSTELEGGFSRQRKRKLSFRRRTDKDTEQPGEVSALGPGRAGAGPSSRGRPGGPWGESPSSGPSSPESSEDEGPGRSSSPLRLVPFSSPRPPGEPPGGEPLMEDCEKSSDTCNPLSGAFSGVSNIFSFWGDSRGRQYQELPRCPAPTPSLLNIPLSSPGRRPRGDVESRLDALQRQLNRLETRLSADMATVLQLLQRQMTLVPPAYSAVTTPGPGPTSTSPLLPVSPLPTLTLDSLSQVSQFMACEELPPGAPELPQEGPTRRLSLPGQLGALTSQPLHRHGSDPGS

Structure (SMILES) | hERG current change (%, negative = inhibition) at 10uM [%]
COc1ccc(CNC(=O)C2CSC(c3ccc(OC)cc3)N2C(C)=O)cc1 (stereo not shown) | -13.5
Cc1cc(OCc2nc(-c3ccc(NC(=O)c4cccnc4)cc3)no2)ccc1Cl | 10.7
COc1ccc(/C=C/C(=O)c2ccc(NC(=O)c3cccs3)cc2)cc1OC | -3.14
Cc1nc2c(nnn2Cc2ccccc2Cl)c(=O)[nH]1 | 13.5
O=C(NCCN1CCOCC1)C(=O)NCc1ccc2c(c1)OCO2 | 22.8
O=c1cc(-c2ccc(Cl)cc2)[nH]c2ccccc12 | 5.97
O=C1CCN(Cc2ccc(Br)cc2)CCN1[C@H](CO)Cc1ccccc1 | -10.4
CCn1ncc(/C=C/C(=O)NCc2cn(C)nc2C)c1C | -3.66
CCN(CC)S(=O)(=O)c1cc(NC(=O)CSc2nnc(-c3cccs3)o2)ccc1C | -14.3
COCCCn1c(-c2cccs2)nc2nc3ccccc3nc21 | -7.93
CCCCCn1c(CN2CCN(c3cc(Cl)ccc3C)CC2)nc2c1c(=O)[nH]c(=O)n2C | -7.77
CCOC(=O)C1=NN(C(C)=O)C2C(=O)N(CC)C(=O)C12 (stereo not shown) | 15.6
Cc1ccc([N+](=O)[O-])c(OCCN2C(=O)NC(C)(C)C2=O)c1 | 30.6
C=CCOc1ccc(C2C(C(=O)c3ccco3)=C(O)C(=O)N2CCCN(CC)CC)cc1 (stereo not shown) | 9.98
CC(NC(=O)c1cccnc1)C(=O)N1CCCCC1 (stereo not shown) | 0.941
COc1ccc(N2CC(C(=O)Nc3nnc(SCCC4OCCO4)s3)CC2=O)cc1 (stereo not shown) | 17.7
Cc1ccc(NC(=S)NCCc2ccc(S(N)(=O)=O)cc2)c(C)c1 | -8.43
O=C(OCCNc1ccc(C(F)(F)F)cc1[N+](=O)[O-])c1cc2ccccc2oc1=O | 4.72
COc1ccc(-c2ccc(CCC(=O)O)n2CC2CCCO2)cc1 (stereo not shown) | 19.4
[N-]=[N+]=NC[C@H](Cc1ccccc1)N1CC[C@@H](O)CCC1=O | 3.94
CCOc1ccc(NC(C)=O)cc1[N+](=O)[O-] | 6.58
COc1ccccc1NC(=O)Cc1cccc2ccccc12 | 14.1

Structure (SMILES) | hERG current change (%, negative = inhibition) at 10uM [%]
Cc1ccc(S(=O)(=O)N2CC=C(C(=O)NCCC(C)C)CC2)cc1 | -10.6
Cc1cccc(N(CC(=O)NCc2ccccc2)C(=O)Cn2nnc(-c3ccc(C)o3)n2)c1 | -9.54
O=C(CN1CCN(S(=O)(=O)c2ccc(Br)cc2)CC1)N/N=C/c1cccs1 | -58.4
CCCCS(=O)(=O)N1CCC(C(=O)Oc2ccccc2OC)CC1 | -9.14
CSCc1nnc(NC(=O)c2ccc(S(=O)(=O)N3CCCCC3C)cc2)o1 (stereo not shown) | -2.38
CCCNC(=O)c1ccc(COc2ccc(C)cc2)o1 | 7.44
O=C(CNS(=O)(=O)c1ccccc1)Nc1cccc([N+](=O)[O-])c1 | -26.2
COc1ccccc1N1CCN(/N=C/c2cc([N+](=O)[O-])ccc2Cl)CC1 | 37.3
COC(=O)c1c(C(=O)OC)c2ccccn2c1C(=O)c1ccccc1 | 6.74
O=C(N/N=C/c1c(Cl)cccc1Cl)c1ccc(-n2cnnn2)cc1 | 7.93
CC(C)(C)n1nnnc1C(c1ccc(C#N)cc1)N1CCCC2(CCCCC2)C1 (stereo not shown) | 0.66
Cl.O=C(COc1ccc(Cl)cc1)N(c1ccc(Cl)cc1)C1CN2CCC1CC2 (stereo not shown) | -65.1
CCCCCCc1cc2cc(C(=O)Nc3ccccc3OC)c(=O)oc2cc1O | 6.4
CCOc1ccc(S(=O)(=O)Nc2ccc3c(c2)OCO3)c2cccnc12 | -2.48
CCC[C@@H](O)c1cc2cc(OC)c(OC)cc2c(=O)o1 | -2.02
CC(NC(=O)c1cc(S(=O)(=O)N(C)C)ccc1Cl)c1ccc(-n2ccnc2)cc1 (stereo not shown) | -76.8
COc1ccc(Cc2nnc(-c3ccccc3)o2)cc1 | -25
CCc1cc(C(=O)Nc2ccc(OC)nc2)sc1C | -11.7
Cn1c(=O)[nH]c(=O)c2c1nc(NCCCO)n2Cc1ccc(F)cc1 | 8.25
CCN(CC)S(=O)(=O)c1ccc(-c2ccc(S(=O)(=O)N(CC)CC)cc2)cc1 | 4.25
O=C(NCc1cccnc1)Nc1cccc(NC(=O)NCc2cccnc2)c1F | 18.5
COc1ccc(OCC(=O)NNC(=O)c2ccc(-c3ccccc3)cc2)cc1 | 17.3

Structure (SMILES) | hERG current change (%, negative = inhibition) at 10uM [%]
COc1ccc(Nc2ncnc3c2cnn3Cc2ccccc2)cc1OC | -5.97
COc1cc(C)ccc1OCCOc1c(C)cc(Cl)cc1Cl | 7.91
CCOc1cc(-c2nc3ccccn3c2NCC2CCCO2)ccc1O (stereo not shown) | -64.7
Cc1nc(CSc2nc3[nH]ncc3c(=O)n2-c2ccccc2)cs1 | -11.8
O=C(CSc1nnc2scc(-c3ccccc3)n12)Nc1ccc2c(c1)OCCO2 | -12.8
Cc1cc(C(=O)CC#N)c(C)n1CC(F)(F)F | 7.38
COc1ccc(NC(=O)N2CCCC2)cc1OC | -10.2
CN(C)S(=O)(=O)c1ccc2nnn(OCC(=O)NC34CC5CC(CC(C5)C3)C4)c2c1 | -51.7
Cc1noc(C)c1C(=O)N1CCCC1 | -0.487
c1cncc(CSc2nnc3ccc(-c4ccco4)nn23)c1 | 9.05
COC(CNC(=O)c1ccc(CS(=O)(=O)c2ccccc2)o1)OC | 0.392
COc1ccc(C2=NOC(C(=O)Nc3ccc4c(c3)OCCO4)C2)c(OC)c1 (stereo not shown) | 3.96
CCOC(=O)C(Cc1ccccc1)C(=O)Nc1cccc(C)c1 (stereo not shown) | -2.68
COc1ccc(N2CCN(C(c3cccs3)C(C)NS(=O)(=O)c3ccccc3)CC2)cc1 (stereo not shown) | -8.34
COc1ccc(N2CC(C(=O)NCCc3c[nH]c4ccccc34)CC2=O)cc1 (stereo not shown) | -11
CCCn1c(C)cc(/C=C(\C#N)C(=O)OCC(=O)Nc2cccc(S(N)(=O)=O)c2)c1C | 7.01
COc1cccc(/C=N/n2c(CO)nc3ccccc32)c1OC | 22.1
COc1ccc(N2C(=O)CCC2=O)cc1 | 21.3
O=C(NCCc1ccccc1)C1CCCN1S(=O)(=O)c1ccccc1 (stereo not shown) | 7.06
COCCCNC(=S)NNC(=O)c1csc(C)n1 | 16.5
CC1CCN(C(=O)CN2C(=O)NC3(CCC(C)CC3)C2=O)CC1 (stereo not shown) | -31.8
O=C(Nc1ccnn1C1CCN(Cc2ccc(OC(F)F)cc2)CC1)C1CCCC1 | -75.3

Structure (SMILES) | hERG current change (%, negative = inhibition) at 10uM [%]
CCCCn1c(=O)[nH]c(=O)c2c1nc(-c1ccc(C)c([N+](=O)[O-])c1)n2CC | -15.2
Cc1ccc(N(CC(=O)NC2CCCCC2)C(=O)CNC(=O)c2ccco2)cc1F | -16.5
CC(OC(=O)c1ccc2noc(-c3ccccc3)c2c1)C(N)=O (stereo not shown) | -3.7
CC(C)NC(=O)c1cc2cc(Br)ccc2oc1=O | 10.2
CC(C)Cn1c(CN(C)Cc2ccccc2)nc2c1c(=O)n(C)c(=O)n2C | -13.6
CCCCCn1c(N)c(C#N)c2nc3ccccc3nc21 | -22.7
CC1CCN(S(=O)(=O)c2ccc3c(c2)oc(=O)n3CC(=O)NCc2ccc3c(c2)OCO3)CC1 | 6.73
Cc1cc(C)cc(OCC(=O)N(C)CC(=O)Nc2ccc(Cl)c(C(F)(F)F)c2)c1 | -0.909
COc1ccccc1N1C(=N)S/C(=C\c2ccc(-c3ccccc3C(=O)O)o2)C1=O | -5.97
Cc1ccc(-c2ccc(CCC(=O)O)n2Cc2ccco2)cc1 | 12.2
COc1cccc(CNC(=O)CCC2CCCN(C(=O)c3ccccc3N(C)C)C2)c1 (stereo not shown) | 0.174
Cc1cccc(C(C(=O)NC2CCCC2)N(C(=O)c2csnn2)C2CCCC2)c1 (stereo not shown) | -5.73
CC(OC(=O)C1=Cc2ccccc2OC1)C(=O)NC1CCCC1 (stereo not shown) | -18.7
CCN(CC)C(=O)c1sc(NC(=O)c2cc(-c3ccc(C)s3)nc3ccccc23)c(C(=O)OC)c1C | 14.8
COc1ccc2c3n(nc2c1)CCN=C3c1ccc(Cl)cc1 | 10.3
CCCCCCCCn1c(=O)c(C(=O)OCC)c(O)c2ccccc21 | 14.5
O=C(c1cccc(C(F)(F)F)c1)N1CCCC1 | 1.7
COc1ccc(N(C(=O)CCl)C(C)(C(=O)Nc2c(C)cccc2C)c2ccccn2)cc1 (stereo not shown) | 3.59
CC1(C)Cc2c(C#N)c(N3CCN(C(=O)c4ccccc4Cl)CC3)nc(-c3ccco3)c2CS1 | -2.34
COc1ccccc1OCc1ccc(C(=O)Nc2cc(OC)c(OC)c(OC)c2)o1 | 4.96
O=C(N/N=C/c1sc(N2CCOCC2)nc1-c1ccccc1)c1ccc(O)cc1 | -5.41
COc1ccc(CCNC(=O)CNS(=O)(=O)c2ccc(Br)s2)cc1OC | -2.94
